In all, about 310,000 compounds went through this assay and about 2,200 (0.71%) showed an effect of 50% or more. Effects have a minus sign here. Some of the results follow.
biological target: human ether-à-go-go-related gene (hERG) potassium channel (human, UniProt Q12809); assay: primary screen, population patch clamp on CHO cells stably expressing hERG
Sequence (Q12809 whole entry, looked up): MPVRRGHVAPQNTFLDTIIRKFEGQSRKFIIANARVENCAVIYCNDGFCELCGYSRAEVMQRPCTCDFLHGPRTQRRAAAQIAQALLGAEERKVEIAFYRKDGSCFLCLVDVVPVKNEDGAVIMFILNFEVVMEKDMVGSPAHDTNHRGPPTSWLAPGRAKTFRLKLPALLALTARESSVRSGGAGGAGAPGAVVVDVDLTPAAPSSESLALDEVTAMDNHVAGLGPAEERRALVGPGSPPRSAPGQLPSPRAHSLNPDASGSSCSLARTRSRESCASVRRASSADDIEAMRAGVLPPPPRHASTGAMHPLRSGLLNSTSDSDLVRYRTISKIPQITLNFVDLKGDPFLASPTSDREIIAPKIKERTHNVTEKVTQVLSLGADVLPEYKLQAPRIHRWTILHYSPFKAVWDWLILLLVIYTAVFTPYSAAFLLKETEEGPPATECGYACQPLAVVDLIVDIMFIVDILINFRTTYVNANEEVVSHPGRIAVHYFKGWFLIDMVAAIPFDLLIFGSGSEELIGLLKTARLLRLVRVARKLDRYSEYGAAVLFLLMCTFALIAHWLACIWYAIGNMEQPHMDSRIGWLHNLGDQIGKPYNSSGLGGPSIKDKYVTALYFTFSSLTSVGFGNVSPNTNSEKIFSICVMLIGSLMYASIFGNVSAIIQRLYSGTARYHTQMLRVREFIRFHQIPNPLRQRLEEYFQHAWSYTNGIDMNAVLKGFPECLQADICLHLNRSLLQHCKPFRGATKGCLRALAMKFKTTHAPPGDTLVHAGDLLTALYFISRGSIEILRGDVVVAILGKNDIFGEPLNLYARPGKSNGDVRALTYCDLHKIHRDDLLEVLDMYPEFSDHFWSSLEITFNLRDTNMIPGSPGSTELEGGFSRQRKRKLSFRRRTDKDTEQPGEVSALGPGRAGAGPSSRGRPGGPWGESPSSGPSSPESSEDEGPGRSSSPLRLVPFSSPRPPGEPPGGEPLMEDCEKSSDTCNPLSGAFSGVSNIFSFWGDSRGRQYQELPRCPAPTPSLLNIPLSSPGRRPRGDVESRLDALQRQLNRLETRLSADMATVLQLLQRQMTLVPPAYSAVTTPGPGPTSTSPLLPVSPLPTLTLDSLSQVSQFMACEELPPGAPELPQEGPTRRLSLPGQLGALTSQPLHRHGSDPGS

SMILES	hERG current change (%, negative = inhibition) at 1uM [%]
COC(=O)Cn1ncc2c3ccccc3n(Cc3ccccc3)c2c1=O	8.5
CCN(CC(=O)Nc1c(F)cccc1F)C(=O)c1ccc(Cl)c(S(=O)(=O)N2CCCCC2)c1	3.56
Cc1cccc(N(C(=O)CNC(=O)c2ccco2)C(C(=O)NCC2CCCO2)c2ccccc2)c1 (centres unmarked)	5.57
CC(=O)N1CCC(=NNc2nc3ccccc3[nH]2)CC1.O=C(O)C(=O)O	11.6
O=c1[nH]c(CSc2ccccn2)nc2c1oc1ccccc12	15.9
O=C(COc1ccc2ccc(=O)oc2c1)NCCCn1ccnc1	5.03
CCOC(=O)C1=C(CS(=O)(=O)c2ccccc2)NC(=O)NC1c1cccc(OC)c1 (centres unmarked)	13.7
O=C(Cn1ccsc1=NC(=O)C(F)(F)F)c1ccccc1	11.2
Cc1cccc(N(C)S(=O)(=O)c2nnc(NC(=O)c3ccco3)s2)c1	9.42
O=c1[nH]c2ccccc2s1	10.6
CN(C)CCCN(C(=O)COc1ccccc1)c1nc2c(Cl)cccc2s1.Cl	-45.5
C=CCn1c(SCC(=O)NCC2CCCO2)nc2scc(-c3ccc(OC)cc3)c2c1=O (centres unmarked)	2.79
COc1cccc(CNC(=O)Cc2ccc(-n3c(=O)[nH]c4ccccc4c3=O)cc2)c1	7.32
CCOC(=O)[C@H]1NN=C(C(=O)OC)[C@@H]1c1ccccc1	5.98
CCCCn1c(N)c(N(CCC(C)C)C(=O)COC(=O)c2cccnc2OCC)c(=O)[nH]c1=O	7.85
Cc1oc2c(CN3CCOCC3)c(O)ccc2c(=O)c1-c1ccccc1	6.91
Cc1ccc(S(=O)(=O)N/N=C/c2ccc(O)cc2O)cc1[N+](=O)[O-]	1.14
O=C(Nc1nncs1)c1cccnc1Cl	8.58
O=c1cc(O)c(-c2ccc(Cl)cc2)c(Cl)[nH]1	8.51
O=C(Nc1ccc(F)cc1)c1c(Cl)nc2ccccn12	-2.74
CCc1nnc(NC(=O)CSc2nnc(-c3ccc(S(=O)(=O)N(CC)CC)cc3)n2CC)s1	16.2
CC(C)c1ccc(SCc2noc(C(=O)NCC3CCCO3)c2C(=O)O)cc1 (centres unmarked)	10.2

SMILES	hERG current change (%, negative = inhibition) at 1uM [%]
COc1ccccc1NS(=O)(=O)c1ccc(C)c(C(=O)N2CCCC2)c1	6.98
FC(F)(F)c1nc2ccccc2n2c(-c3c(Cl)cccc3Cl)nnc12	1.8
c1ccc(-n2nnnc2CN2CCOCC2)cc1	21.8
COc1ccc(NC(=O)Cc2nnc(SCC(=O)NC3CCCCC3)n2C)cc1	14.8
COc1ccc(OCC(=O)Nc2ccc3c(c2)nc2n3CCSC2)cc1	8.57
COCc1cc(C)nc(SCC[N+](C)(C)CC(=O)c2ccccc2)c1C#N.[Br-]	11.4
CCCc1cc(=O)oc2cc(OCC(=O)NC(Cc3c[nH]c4ccc(O)cc34)C(=O)O)c(Cl)cc12 (centres unmarked)	11.3
CCOc1ccc2oc(C(=O)O)c(C)c2c1	8.96
CC(=O)Nc1ccc(CN2CCCC(C(=O)c3ccc(C(F)(F)F)cc3)C2)cc1 (centres unmarked)	-29.3
COc1ccc(OCC(=O)NNC(=O)c2cccc(C)c2)cc1	10.4
Cc1ccc(/C=N/NC(=O)Cn2nc(C)c(Br)c2C)o1	0.906
COC(=O)Cc1nnc(SCC(=O)Nc2ccccc2)c2ccccc12	6.69
O=C(Nc1cccc(C(F)(F)F)c1)c1cccnc1N1CCCC1	8.7
O=C(NC1CCCCC1)c1ccccc1-c1ccccc1	3.95
Cc1ccc(SCC(=O)OCn2nnc3ccccc3c2=O)cc1C	9.41
COc1ccc(-c2nnc3ccc(SC)nn23)cc1	1.76
C[C@@H]1CC[C@H]2C(=O)N3[C@@H](CC[C@@H](C)[C@@H]3c3ccc(Br)cc3)C(=O)N2[C@H]1c1ccc(Br)cc1	5.38
O=C(O)c1ccnc(C(=O)O)c1	0.808
COc1cc(CC(=O)Nc2ccc(N3CCOCC3)cc2)cc(OC)c1OC	12
CCN(CC)C(=O)C1CC(=O)N(c2ccc(F)c(Cl)c2)C1 (centres unmarked)	10.5
O=c1c2ccccc2nc(-c2ccc(Cl)cc2Cl)n1-c1nccs1	8.11
CS(=O)(=O)N1CCC(C(=O)NCc2ccc(F)cc2)CC1	9.31

SMILES	hERG current change (%, negative = inhibition) at 1uM [%]
COc1cc(OC)c(OC)cc1CNCCc1ccc2c(c1)OCO2.O=C(O)C(=O)O	5.97
CC(C)[C@H](NC(=O)OCc1ccccc1)C(=O)OCC(=O)Nc1c(F)cccc1F	8.93
Cc1ccc(/C=C/C(=O)OC(C)C(=O)Nc2ccc(Cl)cn2)o1 (centres unmarked)	11.8
CC(=O)c1ccc(NC2=C(N3CCOCC3)C(=O)c3ccccc3C2=O)cc1	2.37
N#Cc1nc(Cc2cccc3ccccc23)oc1NCCCN1CCOCC1	2.63
O=C(C1CCN(S(=O)(=O)c2cccc3cccnc23)CC1)N1CCc2ccccc21	15.1
COc1ccc(C(=O)OCC(=O)Nc2c(C)cccc2C)c(OC)c1OC	24.2
CC(=O)N1CCN(S(=O)(=O)c2cccc(C(=O)N(Cc3ccccc3)c3cccc(C)c3)c2)CC1	8.34
Cc1ccc(CN2CCN(/N=C/c3cc([N+](=O)[O-])ccc3Cl)CC2)cc1	2.89
COc1ccc2c(c1)c(=O)cc(C)n2CC(=O)NCc1ccco1	5.49
CC(=O)c1cccc(Nc2nc(-c3cccnc3)cs2)c1	12
C=CCCN(Cc1ccccc1)S(=O)(=O)c1cc(Br)ccc1Br	10.1
O=C(NCC(c1ccco1)N1CCCCC1)c1cccnc1 (centres unmarked)	5.41
COc1ccccc1NS(=O)(=O)c1cc(NC(=O)/C=C/c2cccs2)ccc1N1CCOCC1	10.2
Cc1cc(NC(=O)c2sc(Nc3ccc(F)c(Cl)c3)nc2N)no1	4.5
Cc1ccc(S(=O)(=O)N(C)C)cc1NC(=S)NC(C)CCC(C)C (centres unmarked)	4.92
COc1ccc(CCNS(=O)(=O)c2cn(C)c(=O)n(C)c2=O)cc1OC	11.9
CC(C)(C)c1ccc(S(=O)(=O)/N=C2\C=C(NS(=O)(=O)c3ccccc3)C(=O)c3ccccc32)cc1	11
O=C(C1CCC(Cn2c(=S)[nH]c3ccccc3c2=O)CC1)N1CCN(c2ccccn2)CC1 (centres unmarked)	6.77
Nn1c(SCC(=O)N2CCCCCC2)nnc1-c1ccncc1	-0.911
Cn1cccc1CC(=O)NNC(=O)Nc1ccccc1F	12
O=C(O)c1ccccc1C(=O)Nn1cnnc1	15.3

SMILES	hERG current change (%, negative = inhibition) at 1uM [%]
CC1CCCCC1NC(=O)/C(C#N)=C/c1ccccc1F (centres unmarked)	-2.15
CC1COc2ccccc2N1C(=O)c1ccc(F)cc1 (centres unmarked)	9.3
COc1ccc(OCCOC(=O)c2cc(S(=O)(=O)N3CCOCC3)c(Cl)cc2Cl)cc1	0.154
CCOc1cc(/C=N/NC(=O)c2ccc(CSc3nncn3C)cc2)ccc1OCC(=O)N1CCOCC1	11.7
CC1CCN(c2ccc(/C=C(\C#N)c3nn(-c4ccccc4)c(N)c3C#N)cc2[N+](=O)[O-])CC1	10.7
COc1ccc(CNC(=O)COC(=O)C2CC2C)cc1OC (centres unmarked)	5.53
N#CC1=C2SC=C(c3ccc(Br)cc3)N2CCCC1=O	13.4
CCOC(=O)C1CCN(C2CC(=O)N(c3cccc(Cl)c3)C2=O)CC1 (centres unmarked)	-0.575
Cc1cccc(/C(N)=N/OC(=O)CCC2CCCCC2)c1	3.86
Cn1cc([N+](=O)[O-])c(C(=O)Nc2ccc(C(=O)N3CCCCC3)cc2)n1	14.8
CCOc1ccc(NC(=O)CSc2nc(=O)n(Cc3ccccn3)c3c2CCC3)cc1	-3.28
Cc1ccc(S(=O)(=O)N(C)c2ccc(OCC(=O)OCc3c(C)noc3C)cc2)cc1	11.2
CC(C)N(Cc1ccccc1)C(=O)CN1C(=O)COc2ccc(S(=O)(=O)NC3CCCC3)cc21	7.31
N#Cc1c([N+](=O)[O-])cc([N+](=O)[O-])cc1S(=O)(=O)Cc1ccccc1	12.9
COCCN(C(=O)COC(=O)c1ccccc1NCc1ccco1)c1c(N)n(Cc2ccccc2)c(=O)[nH]c1=O	9.57
Cc1ccc(NS(=O)(=O)c2ccc(NC(=O)N3CCCCC3)cc2)cc1	8.05
C=CCc1c(C)nc(SC)nc1Nc1ccccc1	-3.11
COc1ccccc1NC(=O)Cn1cc(C(=O)c2ccco2)c2ccccc21	0.972
Cc1ccc(C(=O)CSc2nnc(COc3cc(C)cc(C)c3)o2)cc1	15.3
CCOC(=O)CC1C(=O)NCCN1S(=O)(=O)c1cccc(C(F)(F)F)c1 (centres unmarked)	13.1
